Assay results taken from PMC4336329 (PLoS ONE, 2015).
Hit rate of the full screen: of about 310,000 compounds, about 14,000 (4.5%) showed an effect of 50% or more. The effect is printed as a negative number. Some of the results follow.

Molecular target: human ether-à-go-go-related gene (hERG) potassium channel (human, UniProt Q12809)
Experiment: primary screen, population patch clamp on CHO cells stably expressing hERG
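Note: peak tail current of the secondary pulse compared with the same well before compound.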

Sequence of human ether-à-go-go-related gene (hERG) potassium channel (Q12809 whole entry, looked up): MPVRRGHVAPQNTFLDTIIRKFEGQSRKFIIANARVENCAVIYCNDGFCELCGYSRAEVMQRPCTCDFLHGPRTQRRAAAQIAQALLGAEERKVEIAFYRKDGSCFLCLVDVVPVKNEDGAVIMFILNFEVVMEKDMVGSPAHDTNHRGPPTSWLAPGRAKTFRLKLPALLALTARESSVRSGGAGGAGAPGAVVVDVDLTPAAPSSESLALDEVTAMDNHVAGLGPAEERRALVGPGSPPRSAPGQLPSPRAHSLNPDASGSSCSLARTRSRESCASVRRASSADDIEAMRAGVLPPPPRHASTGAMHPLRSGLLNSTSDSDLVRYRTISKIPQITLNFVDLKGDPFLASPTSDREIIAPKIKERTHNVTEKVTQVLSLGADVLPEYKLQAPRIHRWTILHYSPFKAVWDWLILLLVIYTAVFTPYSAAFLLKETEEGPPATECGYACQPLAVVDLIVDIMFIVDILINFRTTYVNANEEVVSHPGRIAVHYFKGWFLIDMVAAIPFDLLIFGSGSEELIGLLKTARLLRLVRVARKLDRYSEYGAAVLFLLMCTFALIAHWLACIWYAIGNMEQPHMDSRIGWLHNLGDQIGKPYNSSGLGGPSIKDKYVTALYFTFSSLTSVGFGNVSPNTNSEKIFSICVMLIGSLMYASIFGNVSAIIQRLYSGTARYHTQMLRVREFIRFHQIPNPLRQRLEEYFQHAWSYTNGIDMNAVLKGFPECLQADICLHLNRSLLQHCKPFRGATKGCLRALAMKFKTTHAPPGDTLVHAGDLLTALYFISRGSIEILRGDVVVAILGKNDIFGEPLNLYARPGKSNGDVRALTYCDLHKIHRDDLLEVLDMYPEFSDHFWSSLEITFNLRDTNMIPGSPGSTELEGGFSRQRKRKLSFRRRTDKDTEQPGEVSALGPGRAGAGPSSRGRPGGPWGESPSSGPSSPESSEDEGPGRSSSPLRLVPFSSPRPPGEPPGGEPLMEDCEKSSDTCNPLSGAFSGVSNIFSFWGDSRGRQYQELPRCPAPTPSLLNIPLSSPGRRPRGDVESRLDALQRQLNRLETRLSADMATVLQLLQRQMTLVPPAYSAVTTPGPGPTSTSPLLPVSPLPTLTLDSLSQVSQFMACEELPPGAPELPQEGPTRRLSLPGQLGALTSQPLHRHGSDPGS

In order of falling “hERG current change (%, negative = inhibition) at 10uM” value:
1. O=C(O)/C=C\C(=O)Nc1ccc(N2CCN(c3ccc(Cl)c(Cl)c3)CC2)cc1  27.1%
2. CCOC(=O)/C=C1\Nc2ccccc2OC1=O  24.5%
3. O=C(COc1ccccc1)Nc1nnc(C23CC4CC(CC(C4)C2)C3)s1  21.7%
4. Cc1cc(C(=O)C(=O)O)c(C)n1-c1ccc(Cl)c(Cl)c1  21.6%
5. Nc1nc(SCc2ccccc2Cl)n[nH]1  21.5%
6. CCC(CC)C(=O)c1c[nH]c(C(=O)N2CCN(c3ccccc3)CC2)c1  20.4%
7. COc1cccc(-c2sc3ccc(OC)cc3c2C#CC(C)(C)O)c1  20.2%
8. CCc1ccc(-c2nc(CS(=O)CC(=O)NCCCN3CCOCC3)c(C)o2)cc1 (stereo not shown)  19.8%
9. CCOc1cc(/C=C(\C#N)C(=O)NCC2CCCO2)ccc1OCC(N)=O (stereo not shown)  18.9%
10. CCOc1cc(/C=C/c2nc3ccccc3c(=O)[nH]2)cc(Br)c1OC  18.9%
11. COc1cc(OC)c(C2C(C(=O)N3CCOCC3)=C(C)NC3=C2C(=O)CC(C)(C)C3)cc1OC (stereo not shown)  18.7%
12. Cc1cccc(NC(=O)NNC(=O)COc2ccc(Cl)cc2)c1  18.3%
13. CCC1CCCCN1C(=O)Nc1ccc(F)cc1 (stereo not shown)  18.2%
14. O=C(Nc1nccs1)c1ccc(COc2ccccc2Cl)o1  17.8%
15. O=C(Nc1ccc(F)cc1)OCCOc1ccc(Br)cc1  17.6%
16. CC(C)(C)NC(=O)C(c1ccncc1)N(C(=O)Cn1nnc(-c2ccc(F)cc2)n1)c1ccccc1 (stereo not shown)  17.1%
17. O=C(Cc1cccc(C(F)(F)F)c1)OCN1C(=O)c2ccccc2C1=O  16.8%
18. CC(O)CNc1nc2c(c(=O)n(C)c(=O)n2C)n1CCc1ccccc1 (stereo not shown)  16.5%
19. COc1cc(/C=C/C(=O)c2ccc3c(c2)OCCO3)cc(OC)c1OC  15.7%
20. O=C(COC(=O)c1cccs1)Nc1ccccc1Cl  15.6%
21. Cc1ccc(C(=O)NC(=S)NCc2ccccc2)cc1Br  15.3%
22. COc1ccc(N(CC(=O)NN=C2CCCC2)S(=O)(=O)c2ccccc2)cc1Cl  15.2%
23. Cc1ccccc1Cn1ccc(NC(=O)c2cnn3c(C(F)(F)F)cc(-c4ccco4)nc23)n1  15.1%
24. NC(=O)N/N=C/c1cc(F)cc(F)c1  13.1%
25. COc1ccc(C2OC(=O)CC2C(=O)NCc2ccccc2Cl)cc1OC (stereo not shown)  12.5%
26. Cc1cc(C(=O)NNC(=O)c2cccs2)nn1C(C)(C)C  12.3%
27. CN1C(=S)SC(C)(C)C1(C)NO (stereo not shown)  12.1%
28. COc1ccc(NC(=O)Nc2ccc(Cc3ccncc3)cc2)cc1OC  11.6%
29. Cl.c1ccc2c(N3CCNCC3)cccc2c1  10.9%
30. N#CC1=C(SCc2ccccc2)NC(=O)CC1c1ccco1 (stereo not shown)  10.9%
31. CCS(=O)(=O)n1c(Cc2cccs2)nc2ccccc21  10.6%
32. O=C(Cn1cnc2c(cnn2-c2ccc(Cl)cc2)c1=O)N1CCN(c2ccccc2)CC1  8.46%
33. CCn1c(=NC(=O)CN2C(=O)CCC2=O)sc2c(OC)ccc(OC)c21  7.93%
34. NS(=O)(=O)c1ccc(NC(=O)CCCC(=O)O)cc1  7.58%
35. O=C(/C=C/c1ccccc1)Nc1ccc(NC(=O)c2cccs2)cc1  6.8%
36. CC(=O)c1sc(NC(=O)CN2C(=O)CCC2=O)nc1C  6.48%
37. O=C(c1ccc2c(=O)n(-c3ccccc3)c(=O)[nH]c2c1)N1CCN(c2ccc(F)cc2)CC1  6.39%
38. Nc1nnc(CC(=O)N/N=C/c2ccccc2OCc2ccccc2F)s1  6.19%
39. COc1cccc(N2CC(C(=O)Nc3ccc(F)cc3)CC2=O)c1 (stereo not shown)  6.07%
40. Cn1c(C(=O)N2CCOCC2)cnc1Sc1ncc(C(F)(F)F)cc1Cl  5.94%
41. COc1ccc(CN2C(=NC(=O)C3CCCCC3)SC3CS(=O)(=O)CC32)cc1 (stereo not shown)  5.92%
42. Cc1cccc(NC(=O)c2cc(-c3cccnc3)nc3c(C)cccc23)n1  5.01%
43. Clc1ccc(-c2nc(N3CCCCC3)nc3ccccc23)cc1  4.29%
44. Cc1nn(C)c(Cl)c1CN1CCN(CCC(C)C)C(CCO)C1 (stereo not shown)  4.03%
45. O=C1/C(=C/c2ccc(O)cc2)CCc2ccc([N+](=O)[O-])cc21  3.88%
46. CCCC(=O)Nc1ccc2nc(C)n(Cc3ccccc3Cl)c(=O)c2c1  2.59%
47. Cn1c(N)c(C(=O)COC(=O)/C=C/c2cccc(Br)c2)c(=O)n(C)c1=O  2.05%
48. COc1ccc(/C=N/Nc2ccccc2)cc1Cn1nc(C)c([N+](=O)[O-])c1C  1.71%
49. CCc1nn(CC(=O)NCCCc2ccccc2)c(=O)c2cc3cc(F)ccc3n12  1.58%
50. CC(=O)N1CCN(C(=O)CCc2c[nH]c3ccccc23)CC1  0.963%
51. CCc1ccc2oc(-c3cc(N)ccc3O)nc2c1  0.826%
52. O=c1c2ccccc2nc(SCc2cn3ccsc3n2)n1-c1ccc(F)cc1  0.658%
53. COC(=O)C1=C(O)CSC1=Nc1ccc(C)cc1  0.342%
54. CN(C)S(=O)(=O)c1ccc(N2CCCC2)c(C(=O)Nc2nc(-c3cc(F)ccc3F)cs2)c1  0.334%
55. Cc1cccc(N2C(=O)SC(N(C)c3ccccc3)C2=O)c1 (stereo not shown)  0.296%
56. CC(=O)N1CCc2cc(S(=O)(=O)NCC(=O)NCc3ccc(Cl)cc3)ccc21  -0.999%
57. O=C(NCCc1nnc2ccc(NCC3CCCO3)nn12)c1ccccc1 (stereo not shown)  -1.33%
58. CN1CN=C(NS(=O)(=O)c2ccc([N+](=O)[O-])cc2)NC1  -1.84%
59. COc1ccc(NC(=S)NC23CN4CN(CN(C4)C2)C3)c(OC)c1  -2.51%
60. Cc1cccc(/C=C2/S/C(=N/N=C3\CC4CCC3(C)C4(C)C)NC2=O)c1 (stereo not shown)  -3.41%
61. Cc1ccc(S(=O)(=O)N(c2cccc(C)c2)C2CCS(=O)(=O)C2)cc1 (stereo not shown)  -4.52%
62. COc1ccc(C(C[N+](=O)[O-])c2c(-c3ccccc3)cc3ccccn23)cc1OC (stereo not shown)  -5.28%
63. COc1ccc(CN2CCN(S(=O)(=O)c3ccc(C)cc3)CC2)cc1Br  -5.37%
64. CN(C)c1cc(-c2ccc(Cl)cc2)oc(=O)c1Cl  -6.67%
65. O=C(Oc1ccccc1N1C(=O)C2CCCCC2C1=O)c1ccc(Cl)cc1 (stereo not shown)  -7%
66. CCCN(C(=O)c1cc(Cl)nc2ccccc12)c1c(N)n(Cc2ccccc2)c(=O)[nH]c1=O  -7.07%
67. CC(C)C(c1nnnn1Cc1ccc(F)cc1)N1CCC(C(N)=O)CC1.Cl (stereo not shown)  -7.54%
68. Cc1c(C(=O)Nc2ccncc2)sc2nc(-c3ccc(F)cc3)cn12  -8.24%
69. CCOc1ccc(CC(=O)Nc2nccs2)cc1  -8.5%
70. COC(=O)/C=C1/S/C(=N/NC(=O)c2ccc(Cl)cc2Cl)NC1=O  -9.77%
71. COCCN1C(=O)N(c2cccc(OC)c2)C(=O)C1CC(=O)Nc1ccc(OC)cc1 (stereo not shown)  -9.92%
72. C=CCNC(=O)c1ccc(OC)cc1  -12%
73. COc1cc(NS(=O)(=O)c2ccc(NC(=S)NC(=O)C3CCCC3)cc2)nc(OC)n1  -15.1%
74. Cc1noc(C)c1CSc1ccc2ccccc2n1  -15.5%
75. Cc1ccc(N2C(=O)CC(=O)NC2=O)cc1  -16.9%
76. Cc1ccc(CNC(=O)C2CC(c3cccc([N+](=O)[O-])c3)=NO2)cc1 (stereo not shown)  -17.1%
77. COc1ccc(CN(C(=O)c2ccco2)c2ccccc2)cc1  -18.2%
78. Cn1nccc1C(=O)N1CCN(c2ccccc2Cl)CC1  -18.6%
79. COc1ccc(CCN2C(=S)NC3CC2(C)Oc2ccc([N+](=O)[O-])cc23)cc1OC (stereo not shown)  -19%
80. COc1ccc(CC(=O)NCC2CCCN(Cc3cccc(SC)c3)C2)cc1 (stereo not shown)  -34.6%
81. CCN(CC)CCNC(=O)Cn1c(-c2ccccn2)nc2ccccc21  -35.1%
82. Cl.O=C(CN1CCC(n2nnc3cc(F)ccc32)CC1)NCc1ccco1  -35.6%
83. CCCCc1nc(NCCN)c(C#N)c2c1CSC(C)(C)C2  -38.3%
84. O=C(CSc1nnc(-c2cccs2)n1Cc1ccco1)c1ccc2c(c1)OCO2  -40%
85. O=C(Nc1cccnc1Cl)C1CCCN(c2ncnc3c2nc2n3CCCCC2)C1 (stereo not shown)  -42%
86. O=C(NCc1cccnc1)c1cccn2c(=O)c3sccc3nc12  -63.2%
87. Cc1ccc(C(=O)N/C(=C\c2ccc(-c3ccccc3[N+](=O)[O-])o2)C(=O)NCCCN(C)C)cc1  -74.5%
88. CCN(CC)c1ccc(NC(=O)CN2CCN(CC(=O)Nc3ccc(OC)cc3)CC2)cc1  -74.9%
